{
  "source": "PubChem BioAssay AID624418",
  "about": "(National Center for Advancing Translational Sciences (NCATS), 2012)",
  "note": "Hit rate of the full screen: of about 410,000 compounds, about 530 (0.13%) were called active. This list was built around the results that the source calls inconclusive (neither active nor inactive); the mix of calls is not that of the screen. The call rests on the fitted dose curve; in most records, active means well fitted inhibition curve with a large enough effect; inconclusive means small, poorly fitted or top-dose-only effect, or another doubt; inactive means no such curve, though single readings can be large or run the other way. Potencies of inconclusive entries are doubtful fits and often do not repeat. On the % scale 0 is the no-effect control and ±100 the full control effect; potency means the concentration at half of the fitted maximal effect.",
  "data": [
    {"assay": "qHTS of GLP-1 Receptor Inverse Agonists: Cytotox Screen", "conditions": "HEK293 cAMP-luciferase reporter cells, luminescence, 24 h; activity change, negative = inhibition: at 38.3 µM (top of the series) unless noted", "in_short": "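Quantitative HTS format, 1536 wells, 200 cells/uL seeded. Compounds: 23 nL, 24 h, 37 °C. Detection: luciferase reagent, luminescence at 12 min RT; decreased signal taken as cytotoxic.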", "values": [
      {"smiles": "Cc1cc(S(=O)(=O)c2ccc(Cl)cc2)nc(S(=O)(=O)c2ccc(Cl)cc2)c1C#N", "Potency": "inconclusive: 8.91 µM [inhibitor, partial curve]"},
      {"smiles": "COc1ccc(N=C2NN=C(c3c(C)[nH]c4ccccc34)CS2)cc1", "Potency": "inconclusive: 10 µM [inhibitor, partial curve, poor fit]"},
      {"smiles": "CCN(CC)CCn1c(NCc2cccc(OC)c2OC)nc2ccccc21", "Potency": "inconclusive: 11.2 µM [inhibitor, single point]"},
      {"smiles": "CC(C)OCCCN(CC(O)c1ccccc1)CC(O)c1ccccc1", "note": "(stereo not given)", "Potency": "inconclusive: 28.2 µM [inhibitor, single point]"},
      {"smiles": "O=[N+]([O-])c1ccc(-c2csc(N/N=C/c3cccnc3)n2)cc1", "activity change, negative = inhibition": "inactive: -12.4%"},
      {"smiles": "O=C(CCl)Nc1cccc(S(=O)(=O)NC2=NCCC2)c1", "Potency": "inconclusive: 12.6 µM [inhibitor, partial curve]"},
      {"smiles": "Cc1ccccc1NC(=O)Cc1nnc(SCC(=O)c2ccc(Br)cc2)n1C", "Potency": "inconclusive: 31.6 µM [inhibitor, single point]"},
      {"smiles": "N#CC1=C(N)NC(=S)C(C(N)=O)C1c1ccc(Cl)cc1Cl", "note": "(stereo not given)", "Potency": "inconclusive: 5.62 µM [inhibitor, full curve, poor fit]"},
      {"smiles": "CC(NC(=O)Nc1ccc(Cl)c(Cl)c1)C(c1ccccc1)N1CCOCC1", "note": "(stereo not given)", "Potency": "inconclusive: 10 µM [inhibitor, partial curve, poor fit]"},
      {"smiles": "COC(=O)CSc1nc2cc3c(cc2cc1C#N)OCO3", "activity change, negative = inhibition": "inactive: 11.1%"},
      {"smiles": "CCOc1ccc(-n2c(N)c(-c3nc4ccccc4n3C)c3nc4ccccc4nc32)cc1", "activity change, negative = inhibition": "inactive: 25.9%"},
      {"smiles": "Cn1c(=O)c2c(nc(NCC3CCCC(CN)C3)n2Cc2ccc(Cl)cc2Cl)n(C)c1=O", "note": "(stereo not given)", "Potency": "inconclusive: 28.2 µM [inhibitor, single point]"},
      {"smiles": "COc1ccc(-n2c(=O)c3c4c(sc3n(CC(=O)Nc3cc(C)[nH]n3)c2=O)CCCC4)c(OC)c1", "Potency": "inconclusive: 14.1 µM [inhibitor, single point]"},
      {"smiles": "COc1ccc(-c2cn(-c3ccc(C)c(C)c3)c(=S)[nH]2)cc1OC", "activity change, negative = inhibition": "inactive: 2.96%"},
      {"smiles": "O=C(NC(NC(=S)Nc1ccc(Cl)cc1Cl)C(Cl)(Cl)Cl)c1cccc([N+](=O)[O-])c1", "note": "(stereo not given)", "Potency": "inconclusive: 10 µM [inhibitor, partial curve]"},
      {"smiles": "Oc1ccc(Nc2nc3ccccc3nc2Nc2ccc(O)cc2)cc1", "Potency": "inconclusive: 5.62 µM [inhibitor, full curve, poor fit]"},
      {"smiles": "COc1ccc(OC)c2c(C)cc(N3CCN(C(=O)c4ccc(Cl)cc4)CC3)nc12", "Potency": "inconclusive: 1.41 µM [inhibitor, full curve, poor fit]"},
      {"smiles": "CC(C)C(=O)N1CCN(c2ccc(NC(=O)c3ccc4c(c3)OCCO4)cc2Cl)CC1", "Potency": "inconclusive: 15.8 µM [inhibitor, single point]"},
      {"smiles": "CC(C)Oc1ccc(C(CCN)C2CCCCC2)cc1", "note": "(stereo not given)", "Potency": "inconclusive: 14.1 µM [inhibitor, single point]"},
      {"smiles": "CCN1C(=O)[C@H]2[C@@H](c3ccc(-c4ccc(OC)cc4)c(OC)c3)N[C@@](CC(C)C)(C(=O)OC)[C@H]2C1=O", "Potency": "inconclusive: 28.2 µM [inhibitor, single point]"},
      {"smiles": "O=C(Nc1ccccc1)Nc1cc(Cl)cc(Cl)c1", "Potency": "inconclusive: 7.08 µM [inhibitor, partial curve, poor fit]"},
      {"smiles": "CCOC(=O)c1sc(NC(=O)CSc2n[nH]c(-c3ccccc3)n2)c(C#N)c1C", "Potency": "inconclusive: 7.94 µM [inhibitor, partial curve, poor fit]"},
      {"smiles": "Oc1cccc2ccc(/C=C/c3c(F)cccc3Cl)nc12", "Potency": "inconclusive: 7.94 µM [inhibitor, partial curve]"},
      {"smiles": "COC1=CC(=O)c2nc(Cl)ccc2C1=O", "Potency": "inconclusive: 7.94 µM [inhibitor, partial curve, poor fit]"},
      {"smiles": "C[C@@H](NC(=O)c1nc[nH]c1C(=O)N[C@@H](Cc1ccccc1)C(=O)OC(C)(C)C)c1ccccc1", "Potency": "inconclusive: 31.6 µM [inhibitor, partial curve, poor fit]"},
      {"smiles": "Cc1cc(C)cc(NC(=S)NCCN(C2CCCCC2)C2CCCC2)c1", "Potency": "inconclusive: 12.6 µM [inhibitor, single point]"},
      {"smiles": "Cc1ccc(S(=O)(=O)N2CCN(C)CC2)cc1C", "activity change, negative = inhibition": "inactive: 5.1%"},
      {"smiles": "COc1ccc(C(NCC(=O)NC(C)c2ccc(Cl)cc2)c2ccccc2)cc1", "note": "(stereo not given)", "Potency": "inconclusive: 14.1 µM [inhibitor, single point]"},
      {"smiles": "CS(=O)(=O)c1ccc(C(=O)Nc2ccc(N3CCOCC3)cc2)c(Cl)c1", "activity change, negative = inhibition": "inactive: -3.35%"},
      {"smiles": "COc1cc(OC)c(NS(=O)(=O)c2cc(-c3cnc(C)o3)ccc2OC)cc1Cl", "activity change, negative = inhibition": "inactive: -4.69%"},
      {"smiles": "Cc1ccc(NC(=O)CN2C(=O)CCn3nc(-c4cccn4C)cc32)cc1", "activity change, negative = inhibition": "inactive: -3.02%"},
      {"smiles": "Cc1cc(NC2CCCCC2)nc2ccccc12", "Potency": "inconclusive: 11.2 µM [inhibitor, single point]"},
      {"smiles": "COc1ccc(S(=O)(=O)N2CCN(C(=O)C3COc4ccccc4O3)CC2)cc1", "note": "(stereo not given)", "activity change, negative = inhibition": "inactive: 0%"},
      {"smiles": "O=C1c2[nH]nc(-c3ccc(Br)cc3)c2C(c2cccc(O)c2)N1c1ccc(Cl)cc1", "note": "(stereo not given)", "Potency": "inconclusive: 20 µM [inhibitor, single point]"},
      {"smiles": "O=C(CN1C(=O)/C(=C\\c2cccc(Br)c2)Oc2ccccc21)NCCCN1CCOCC1", "Potency": "inconclusive: 11.2 µM [inhibitor, single point]"},
      {"smiles": "CCCn1nc2cc(C(=O)NCc3ccc(OC(F)(F)F)cc3)ccc2c1OCC", "activity change, negative = inhibition": "inactive: 0.457%"},
      {"smiles": "O=C(CSc1nnc(-c2ccc3c(c2)OCO3)o1)Nc1ncc(Cl)cc1Cl", "Potency": "inconclusive: 1 µM [inhibitor, full curve, poor fit]"},
      {"smiles": "CC1=CC(C)(C)N(C(=O)CSc2nncn2C)c2ccccc21", "activity change, negative = inhibition": "inactive: -5.83%"},
      {"smiles": "C=CCn1c(C)c(C(C)=O)c(N2CCN(C(c3ccccc3)c3ccccc3)CC2)nc1=S", "Potency": "inconclusive: 22.4 µM [inhibitor, single point]"},
      {"smiles": "O=C1NC[C@H](Cc2ccccc2)N(C[C@H]2CCCN2C[C@H](Cc2ccccc2)N2C[C@H](Cc3ccccc3)N(CCc3ccccc3)C(=O)C2=O)C1=O", "Potency": "inconclusive: 11.2 µM [inhibitor, single point]"},
      {"smiles": "Cc1ccccc1NC(=O)c1c(C)nn(-c2ccccc2)c1Cl", "activity change, negative = inhibition": "inactive: -4.2%"},
      {"smiles": "O=C(N/N=C/C(Cl)=C/c1ccccc1)c1cnccn1", "Potency": "inconclusive: 31.6 µM [inhibitor, single point]"},
      {"smiles": "CC(=O)Oc1oc(-c2ccccc2)nc1C=Nc1ccc(N(C)C)cc1", "Potency": "inconclusive: 12.6 µM [inhibitor, single point]"},
      {"smiles": "Cc1cc(OCCOCCNCc2ccccc2)ccc1C(C)C", "Potency": "inconclusive: 28.2 µM [inhibitor, single point]"},
      {"smiles": "CCOc1cc(/C=N/NC(N)=S)cc(Br)c1OCc1ccccc1C", "Potency": "inconclusive: 5.62 µM [inhibitor, full curve, poor fit]"},
      {"smiles": "CCOc1cccc(/C=N/NC(=O)C2CCCC2)c1O", "Potency": "inconclusive: 2 µM [inhibitor, full curve, poor fit]"},
      {"smiles": "Cc1[nH][nH]c(=O)c1N=Nc1ccc(Cl)cc1", "Potency": "inconclusive: 12.6 µM [inhibitor, single point]"},
      {"smiles": "COc1ccc(C(=O)Nc2ccc(Nc3ccccc3)cc2)cc1[N+](=O)[O-]", "Potency": "inconclusive: 2.51 µM [inhibitor, full curve]"},
      {"smiles": "COc1ccc(N(C(=O)c2ccco2)S(=O)(=O)c2cc(OC)ccc2OC)cc1", "activity change, negative = inhibition": "inactive: 3.67%"},
      {"smiles": "CCOC(=O)c1cc(-c2ccccc2)n(CCC(=O)N2CCN(c3ccccc3OC)CC2)c1C", "Potency": "inconclusive: 10 µM [inhibitor, partial curve, poor fit]"},
      {"smiles": "Cc1c(C(=O)NCc2ccccc2CN2CCCC2)oc2ccccc12", "Potency": "inconclusive: 11.2 µM [inhibitor, single point]"},
      {"smiles": "COCCCNC(=S)NCCNc1nc2c(C)c(C)ccc2cc1C#N", "Potency": "inconclusive: 10 µM [inhibitor, single point]"},
      {"smiles": "O=C(N/N=C/c1cccc([N+](=O)[O-])c1)c1cc(-c2ccc3c(c2)OCO3)n[nH]1", "Potency": "inconclusive: 10 µM [inhibitor, single point]"},
      {"smiles": "Cc1ccc(C)c(NC(=S)N2CCCCCC2)c1", "activity change, negative = inhibition": "inactive: -10.6%"},
      {"smiles": "COC(=O)Cc1ccc(NC(=S)NCCSc2ccc(Cl)cc2)cc1", "Potency": "inconclusive: 14.1 µM [inhibitor, single point]"},
      {"smiles": "Cc1cc(C)n(/N=C\\c2c(O)ccc3ccccc23)c(=O)c1C(N)=O", "Potency": "inconclusive: 31.6 µM [inhibitor, single point]"},
      {"smiles": "S=c1[nH]c2ccc(Cl)cc2s1", "Potency": "inconclusive: 28.2 µM [inhibitor, single point]"},
      {"smiles": "COc1ccc2cc3c(N)nn(C(=O)c4ccccc4[N+](=O)[O-])c3nc2c1", "Potency": "inconclusive: 28.2 µM [inhibitor, single point]"},
      {"smiles": "Cc1ccc2c(c1)c1c(n2CC(O)Cn2c(C)nc3ccccc32)/C(=N\\O)CCC1", "note": "(stereo not given)", "Potency": "inconclusive: 11.2 µM [inhibitor, partial curve, poor fit]"},
      {"smiles": "CCn1c2ccccc2c2cc(/C=N/NC(=O)c3cccc(C)c3)ccc21", "Potency": "inconclusive: 3.16 µM [inhibitor, full curve]"},
      {"smiles": "Brc1ccc2ncnc(NCc3ccccc3)c2c1", "activity change, negative = inhibition": "inactive: -11.1%"},
      {"smiles": "O=c1cc(/N=C/c2coc3cc(Br)ccc3c2=O)[nH]c(=S)[nH]1", "Potency": "inconclusive: 11.2 µM [inhibitor, partial curve, poor fit]"},
      {"smiles": "O=C1CC(/C=C/c2ccncc2)=Nc2ccccc2N1", "activity change, negative = inhibition": "inactive: -23.8%"},
      {"smiles": "COC(=O)C1=C(C)N(Cc2ccco2)C(=O)N[C@@H]1c1ccco1", "Potency": "inconclusive: 28.2 µM [inhibitor, single point]"},
      {"smiles": "CCC(=O)N1CCc2cc(Br)cc(S(=O)(=O)N3CCN(c4ccccc4OC)CC3)c21", "activity change, negative = inhibition": "inactive: 2.04%"}
    ]}
  ]
}
